Measured values from the supplement of paper PMC9135407.
Values joined by “and” are separate entries in the source; they are usually repeats but may differ in a detail not shown here. Identical values can stand only once. Counter-ions that a name gives are not always drawn. About 620 (11%) of roughly 5,800 compounds showed activity.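 How the source made its calls: active = score above a cut-off or among the top three wells of a plate; in these data no inactive exceeds 0.85.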 Only a part is listed here, and it is no random draw.

Test system: primary human hepatic stellate cells (donor 1)
Test: scaled lipid accumulation score (0 = DMSO-like, 1 = nortriptyline-like); higher = stronger HSC inactivation (lipid re-accumulation), active = hit call of the paper
Conditions: 48 h
[1] = library stock concentration: 3.33 mM
[2] = library stock concentration: 10 mM
[3] = library stock concentration: 1 mM

Q: What does the source list for `CCCN1CCCC[C@H]1C(=O)Nc1c(C)cccc1C` [Ropivacaine HCl]?
A: scaled lipid accumulation score [1]: inactive: ≤ 0; scaled lipid accumulation score [2]: inactive: ≤ 0

Q: Which “scaled lipid accumulation score” value (library stock concentration: 9.9 mM) does the source give for `CCCN1CCCC[C@H]1C(=O)Nc1c(C)cccc1C` here?
A: inactive: ≤ 0

Q: Which “scaled lipid accumulation score” value [3] does the source give for `CCCCCC(O)C=CC1C(O)CC(O)C1CC=CCCCCOC` (stereo not drawn) [Prostaglandin F2.alpha. Alcohol methyl ether] here?
A: inactive: ≤ 0

Q: How did the “scaled lipid accumulation score” value [3] turn out when `CCCCCCCCCCCCC/C=C/[C@@H](O)[C@H](CO)NCCCCCCCC` [C-8 Ceramine] was run?
A: inactive: 0.054

Q: For `CCCCCCCCCCCCC/C=C/[C@@H](O)[C@H](CO)NCCCCCCCC` [C8 Ceramine], which “scaled lipid accumulation score” value [3] is on record?
A: inactive: 0.067

Q: `Cc1cccc(-c2[nH]c(C(C)(C)C)nc2-c2ccc3c(c2)OCO3)n1` was tested. Which “scaled lipid accumulation score” value [1] did it give?
A: inactive: 0.571

Q: What about the “scaled lipid accumulation score” value [2] of the same compound?
A: inactive: ≤ 0

Q: For `NC1CCN(c2cccc(Cl)n2)CC1`, which “scaled lipid accumulation score” value [2] is on record?
A: inactive: 0.62 and inactive: 0.499

Q: Which “scaled lipid accumulation score” value [2] does the source give for `C[C@@H](N)c1ccc(C(=O)Nc2ccnc3[nH]ccc23)cc1.Cl.Cl` here?
A: active: 1.13

Q: `COc1cccc(CCc2ccccc2OCC[C@@H]2C[C@@H](O)CN2C)c1.Cl` was tested. Which “scaled lipid accumulation score” value [2] did it give?
A: active: 1.18

Q: `CCN(C(=O)c1c(O)c2c(Cl)cccc2n(C)c1=O)c1ccccc1` [Laquinimod] was tested. Which “scaled lipid accumulation score” value [1] did it give?
A: inactive: ≤ 0

Q: And the “scaled lipid accumulation score” value [2]?
A: inactive: ≤ 0

Q: Which “scaled lipid accumulation score” value [2] does the source give for `Cl.N/C(=N\C(=O)c1nc(Cl)c(N)nc1N)NCc1ccccc1` [Benzamil hydrochloride] here?
A: active: 1.09

Q: With `CN1CC(=O)N2[C@H](c3ccc4c(c3)OCO4)c3[nH]c4ccccc4c3C[C@@H]2C1=O` as the compound, how does the “scaled lipid accumulation score” value [2] read?
A: inactive: ≤ 0

Q: Which results are given for `CN1CC(=O)N2[C@H](c3ccc4c(c3)OCO4)c3[nH]c4ccccc4c3C[C@@H]2C1=O` [Tadalafil]?
A: scaled lipid accumulation score [1]: inactive: ≤ 0; scaled lipid accumulation score [2]: inactive: ≤ 0

Q: With `C1CCC(C(CC2CCCCN2)C2CCCCC2)CC1` (stereo not drawn) [Perhexiline maleate] as the compound, how does the “scaled lipid accumulation score” value read?
A: inactive: 0.428

Q: And the “scaled lipid accumulation score” value (library stock concentration: 5.1 mM)?
A: inactive: 0.454

Q: What about the “scaled lipid accumulation score” value [2] of the same compound?
A: inactive: 0.576

Q: For `COc1ccccc1N1CCN(CCCCNC(=O)c2ccc(-c3ccc(C(C)=O)cc3)cc2)CC1`, which “scaled lipid accumulation score” value [2] is on record?
A: active: 0.934

Q: For `CC(C)NCC(O)COc1ccc(CCOCC2CC2)cc1` (stereo not drawn) [Betaxolol], which “scaled lipid accumulation score” value [1] is on record?
A: inactive: ≤ 0

Q: What about the “scaled lipid accumulation score” value [2] of the same compound?
A: inactive: 0.214

Q: For `CC(C)NCC(O)COc1ccc(CCOCC2CC2)cc1` (stereo not drawn), which “scaled lipid accumulation score” value [2] is on record?
A: inactive: 0.332

Q: How did the “scaled lipid accumulation score” value turn out when `CC(C)NCC(O)COc1ccc(CCOCC2CC2)cc1` (stereo not drawn) [Betaxolol hydrochloride] was run?
A: inactive: 0.503

Q: What about the “scaled lipid accumulation score” value [2] of the same compound?
A: inactive: 0.758 and inactive: 0.394

Q: Which “scaled lipid accumulation score” value [2] does the source give for `COc1cccc(-c2cc(F)ccc2[C@H]2Cc3nc(N)nc(C)c3C(=O)N2)n1` here?
A: active: 0.937

Q: With `CCc1nc(N)nc(N)c1-c1ccc(Cl)cc1` as the compound, how does the “scaled lipid accumulation score” value [2] read?
A: inactive: 0.007

Q: How did the “scaled lipid accumulation score” value turn out when `CCc1nc(N)nc(N)c1-c1ccc(Cl)cc1` [Pyrimethamine] was run?
A: inactive: 0.065

Q: And the “scaled lipid accumulation score” value [1]?
A: inactive: 0.057

Q: What about the “scaled lipid accumulation score” value (library stock concentration: 8 mM) of the same compound?
A: inactive: 0.011

Q: What about the “scaled lipid accumulation score” value [2] of the same compound?
A: inactive: ≤ 0

Q: Which results are given for `Cc1c(C(=O)NN2CCCCC2)nn(-c2ccc(Cl)cc2Cl)c1-c1ccc(I)cc1`?
A: scaled lipid accumulation score [3]: inactive: ≤ 0 and inactive: ≤ -0.021; scaled lipid accumulation score [1]: inactive: ≤ 0; scaled lipid accumulation score [2]: inactive: ≤ 0 and inactive: 0.147 and inactive: ≤ -0.006

Q: Which results are given for `CC(=O)[C@@]1(O)CC[C@H]2[C@@H]3C[C@H](C)C4=CC(=O)C=C[C@]4(C)[C@@]3(F)[C@@H](O)C[C@@]21C` [Fluorometholone]?
A: scaled lipid accumulation score: inactive: ≤ 0; scaled lipid accumulation score (library stock concentration: 5.3 mM): inactive: 0.019; scaled lipid accumulation score [2]: inactive: ≤ 0

Q: Which results are given for `Cn1cc(C2=C(c3ccc(Cl)cc3Cl)C(=O)NC2=O)c2ccccc21`?
A: scaled lipid accumulation score (library stock concentration: 2 mM): active: 1.13; scaled lipid accumulation score [2]: active: 1.17

Q: `O=C(O)c1cn(C2CC2)c2cc(N3CCNCC3)c(F)cc2c1=O` [Ciprofloxacin hydrochloride] was tested. Which “scaled lipid accumulation score” value did it give?
A: inactive: 0.153

Q: What does the source list for `O=C(O)c1cn(C2CC2)c2cc(N3CCNCC3)c(F)cc2c1=O` [Ciprofloxacin]?
A: scaled lipid accumulation score (library stock concentration: 6 mM): inactive: ≤ 0; scaled lipid accumulation score [2]: inactive: 0.016

Q: How did the “scaled lipid accumulation score” value [2] turn out when `CCCn1c(=O)[nH]c(=O)c2[nH]cnc21` [3-n-Propylxanthine] was run?
A: inactive: ≤ 0

Q: How did the “scaled lipid accumulation score” value [2] turn out when `OC[C@H]1O[C@@H](n2cnc3c(NC4CCCC4)ncnc32)[C@H](O)[C@@H]1O` [N6-Cyclopentyladenosine] was run?
A: inactive: ≤ 0 and inactive: ≤ -0.006

Q: For `CN1CCN(C2CCN(C(=O)Nc3cc(Oc4ccc(NC(=O)C5(C(=O)Nc6ccc(F)cc6)CC5)c(F)c4)ccn3)CC2)CC1` [Golvatinib (E7050)], which “scaled lipid accumulation score” value [1] is on record?
A: active: 0.979

Q: Which “scaled lipid accumulation score” value [1] does the source give for `CCOc1nc2cccc(C(=O)OCc3oc(=O)oc3C)c2n1Cc1ccc(-c2ccccc2-c2noc(=O)[nH]2)cc1` [Azilsartan Medoxomil] here?
A: inactive: ≤ 0

Q: And the “scaled lipid accumulation score” value [2]?
A: inactive: 0.184

Q: Which “scaled lipid accumulation score” value [2] does the source give for `O=c1c(-c2ccccc2)c1-c1ccccc1` [diphenylcyclopropenone] here?
A: active: 1.25

Q: Which “scaled lipid accumulation score” value [2] does the source give for `C[N+](C)(C)CC=O` [Betaine aldehyde chloride] here?
A: inactive: 0.129

Q: Which “scaled lipid accumulation score” value [1] does the source give for `CN1c2cc(O)c(N=NC(N)=O)cc2CC1S(=O)(=O)O` (stereo not drawn) [Carbazochrome sodium sulfonate (AC-17)] here?
A: inactive: ≤ 0

Q: And the “scaled lipid accumulation score” value [2]?
A: inactive: ≤ 0

Q: Which “scaled lipid accumulation score” value [2] does the source give for `C#CCN[C@@H]1CCc2ccccc21` here?
A: inactive: ≤ 0

Q: What does the source list for `C#CCN[C@@H]1CCc2ccccc21` [Rasagiline Mesylate]?
A: scaled lipid accumulation score [1]: inactive: ≤ 0; scaled lipid accumulation score [2]: inactive: ≤ 0

Q: Which “scaled lipid accumulation score” value [2] does the source give for `Cn1c(=O)[nH]c2ncn(C)c2c1=O` [1,7-Dimethylxanthine] here?
A: inactive: 0.055

Q: For `C1COC(NC(C2CC2)C2CC2)=N1` [Rilmenidine hemifumarate], which “scaled lipid accumulation score” value [2] is on record?
A: inactive: ≤ 0

Q: With `COc1cc(OC2CCN(C)CC2)ccc1Nc1ncc2c(n1)n(C1CCCC1)c(=O)n2C` as the compound, how does the “scaled lipid accumulation score” value [1] read?
A: inactive: 0.441

Q: How did the “scaled lipid accumulation score” value [2] turn out when `N#C/C(=C\c1ccc(O)c(O)c1)C(=O)OCCc1cccs1` was run?
A: inactive: ≤ 0

Q: For `COc1ccc(NS(=O)(=O)c2sc3ccc(Cl)cc3c2C)cc1N1CCNCC1`, which “scaled lipid accumulation score” value [1] is on record?
A: inactive: 0.383

Q: `Cc1cc(C(C)(C)C)c(O)c(C(C)(C)C)c1` [2,6-di-t-butyl-4-methylphenol] was tested. Which “scaled lipid accumulation score” value (library stock concentration: 9.1 mM) did it give?
A: inactive: 0.257

Q: For `COc1ccc(-c2cc(=S)ss2)cc1` [Anethole-trithione (anetholtrithion)], which “scaled lipid accumulation score” value (library stock concentration: 8.3 mM) is on record?
A: inactive: ≤ -0.006

Q: For `O=C(O)Cc1c[nH]c2ccc(O)cc12` [5-Hydroxyindolacetic acid], which “scaled lipid accumulation score” value [2] is on record?
A: inactive: ≤ -0.07
